Among all 360,000 compounds or so, about 520 (0.14%) were called active. Inconclusive results, whose numbers are uncertain, are shown with a selection of clear calls. Calls come from the whole dose curve; as a rule, active = well fitted inhibition curve with a large enough effect; inconclusive = small, poorly fitted or top-dose-only effect; inactive = no such curve, though single readings can be large or run the other way. Potencies of inconclusive entries are left out as doubtful fits.
target: Rap guanine nucleotide exchange factor 3 (Homo sapiens) (UniProt O95398); experiment: qHTS for Antagonist of cAMP-regulated guanine nucleotide exchange factor 3 (EPAC1): primary screen; conditions: EPAC1 GEF assay, Rap1b-BODIPY-GDP exchange fluorescence; activity change, negative = inhibition: at 115 µM (top of the series); note: nearly all actives have a fitted effect of over 50% in size;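 for activity change, negative = inhibition: plate controls were vehicle for no effect and positive control for full effect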
Sequence of UniProt O95398 (O95398 whole entry, looked up): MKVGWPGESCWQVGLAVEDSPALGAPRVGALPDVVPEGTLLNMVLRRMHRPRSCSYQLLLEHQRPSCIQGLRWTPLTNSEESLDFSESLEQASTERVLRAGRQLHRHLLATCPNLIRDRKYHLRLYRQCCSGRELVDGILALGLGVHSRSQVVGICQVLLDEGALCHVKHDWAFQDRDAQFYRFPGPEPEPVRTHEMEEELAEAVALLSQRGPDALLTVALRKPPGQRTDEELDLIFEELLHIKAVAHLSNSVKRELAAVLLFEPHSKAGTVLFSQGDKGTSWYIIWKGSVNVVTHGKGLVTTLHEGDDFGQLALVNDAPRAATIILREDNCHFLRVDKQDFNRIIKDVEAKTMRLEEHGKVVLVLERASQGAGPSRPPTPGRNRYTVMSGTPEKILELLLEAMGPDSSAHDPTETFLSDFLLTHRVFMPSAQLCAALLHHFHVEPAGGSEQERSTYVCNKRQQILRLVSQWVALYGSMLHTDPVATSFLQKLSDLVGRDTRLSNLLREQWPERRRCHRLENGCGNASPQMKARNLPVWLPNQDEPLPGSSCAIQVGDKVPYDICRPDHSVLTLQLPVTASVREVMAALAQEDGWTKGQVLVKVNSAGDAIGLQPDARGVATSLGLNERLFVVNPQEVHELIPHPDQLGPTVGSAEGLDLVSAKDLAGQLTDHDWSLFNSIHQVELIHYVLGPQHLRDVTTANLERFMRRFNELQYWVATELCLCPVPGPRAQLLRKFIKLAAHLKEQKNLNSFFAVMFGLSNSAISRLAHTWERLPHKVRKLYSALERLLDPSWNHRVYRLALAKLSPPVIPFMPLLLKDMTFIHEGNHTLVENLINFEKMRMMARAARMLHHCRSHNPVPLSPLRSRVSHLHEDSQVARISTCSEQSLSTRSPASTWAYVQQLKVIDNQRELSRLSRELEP
Potency is the fitted concentration of half-maximal effect; tags give direction and shape of the fitted curve.

| SMILES | Potency | activity change, negative = inhibition |
| --- | --- | --- |
| CCCCc1ccc(/C=C(\C#N)C(N)=S)s1 | inconclusive [inhibitor, partial curve] | – |
| CC(C)NC(=O)COC(=O)c1ccc(Cl)c(S(=O)(=O)N2CCCC2)c1 | inconclusive [inhibitor, single point] | – |
| CCOC(=O)c1c(C)oc2c1c(CN1CCN(CCO)CC1)c(O)c1ccccc12 | inconclusive [inhibitor, partial curve] | – |
| CCOC(=O)c1c(CSc2ccccc2)n(C)c2cc(Br)c(OCC(O)CNC(CO)(CO)CO)cc12 (configuration not stated) | – | inactive: -10.9% |
| COc1ccccc1-n1cc2ccc([N+](=O)[O-])cc2n1 | – | inactive: -8.39% |
| Cc1cc(C)c(NC(=O)COC(=O)C2CCCO2)c(C)c1 (configuration not stated) | inconclusive [inhibitor, partial curve] | – |
| O=C(Nc1ccc(Oc2cccnc2)cc1)C1CCN(Cc2cc(Cl)ccc2O)CC1 | inconclusive [inhibitor, full curve, poor fit] | – |
| CC(C)c1ccc(NC(=O)CSc2n[nH]c(=O)n2C2CC2)cc1 | inconclusive [inhibitor, full curve, poor fit] | – |
| CCc1c(C)nc2ncnn2c1N1CCCC(C(=O)Nc2ccc(NC(C)=O)cc2)C1 (configuration not stated) | inconclusive [inhibitor, partial curve] | – |
| C[C@@H]1CN([C@H](C)CO)C(=O)CCCn2nncc2CO[C@H]1CN(C)Cc1cccc2c1OCCCO2 | inconclusive [inhibitor, single point] | – |
| CCC(=O)NC(c1ccc(N(C)C)cc1)c1c(O)ccc2ccccc12 (configuration not stated) | inconclusive [inhibitor, partial curve] | – |
| O=C(O)c1[nH]c2ccccc2c1C(c1cccc(O)c1)c1c(C(=O)O)[nH]c2ccccc12 | inconclusive [inhibitor, single point] | – |
| CC(C)(C)C1(O)CC(C(F)(F)F)=NN1C(=O)CCc1ccccc1 (configuration not stated) | inconclusive [inhibitor, partial curve, poor fit] | – |
| CC1=NN(c2ccccc2)C(=O)/C1=C/C=C/c1ccccc1 | inconclusive [inhibitor, single point] | – |
| CCCCN(CC)Cc1ccc(CNC(=S)Nc2ccc(C)cc2Cl)o1 | inconclusive [inhibitor, single point] | – |
| Cc1ccc(CN2C(=NC(=O)CCC(=O)O)SC3CS(=O)(=O)CC32)cc1 (configuration not stated) | – | inactive: -6.14% |
| O=C(Nc1ccc(F)cc1)c1ccc(S(=O)(=O)N2CCCC2)cc1 | inconclusive [inhibitor, single point] | – |
| O=C(c1ccc(CS(=O)c2cccc(Cl)c2)o1)N1CCCCCC1 (configuration not stated) | inconclusive [inhibitor, full curve, poor fit] | – |
| CC1(c2ccccc2)NC(=O)N(N)C1=O (configuration not stated) | inconclusive [inhibitor, partial curve] | – |
| COc1cc(C2C(C#N)=C(N)OC3=C2C(=O)CC(C)(C)C3)c([N+](=O)[O-])cc1OC (configuration not stated) | – | inactive: 7.95% |
| CCc1nc(CNC(=O)C2CCC(=O)N(CCc3cccc(F)c3)C2)no1 (configuration not stated) | inconclusive [inhibitor, full curve, poor fit] | – |

| SMILES | Potency | activity change, negative = inhibition |
| --- | --- | --- |
| Cc1c(NS(=O)(=O)c2cc(Br)cc3c2N(C(=O)C2CC2)CC3)c(=O)n(-c2ccccc2)n1C | inconclusive [inhibitor, partial curve, poor fit] | – |
| COc1ccc(C(O)c2ncc(-c3ccc4ccccc4c3)[nH]2)cc1 (configuration not stated) | inconclusive [inhibitor, full curve, poor fit] | – |
| CC(C)c1cc(C(=O)NNC(=S)NCc2ccco2)c(O)c(C(C)C)c1 | inconclusive [inhibitor, partial curve] | – |
| COc1cccc(-n2nnc3c(=O)n(Cc4ccc(F)cc4)cnc32)c1 | – | inconclusive: -2.6% [inhibitor] |
| Cn1c2c(c(=O)n(C)c1=O)[C@@]1(C(=O)Nc3ccccc31)C(C#N)=C(N)O2 | – | inactive: 7.49% |
| CCOC(=O)C1CCN(C(=O)COc2ccc([N+](=O)[O-])cc2)CC1 | inconclusive [inhibitor, single point] | – |
| CC1CCC(NC(=O)Cn2c3c(c(-c4ccccc4Cl)cc2=O)CCC3)CC1 (configuration not stated) | inconclusive [inhibitor, single point] | – |
| O=C(c1cc(-c2cccc(O)c2)on1)N1CCN(C(c2ccccc2)c2ccccc2)CC1 | inconclusive [inhibitor, partial curve] | – |
| Cc1ccc(C(=O)C(C)OC(=O)Cc2c[nH]c3ccccc23)cc1 (configuration not stated) | inconclusive [inhibitor, full curve, poor fit] | – |
| C#CCOCCOCCOCCNc1nc(N2CCOCC2)nc(N2CCN(C(=O)[C@H](CCCCN)n3cc([C@@H](N)CC(C)C)nn3)CC2)n1 | inconclusive [inhibitor, partial curve, poor fit] | – |
| Cn1ncc(C(=O)Nc2ccc(Cl)cc2)c1C(F)(F)F | – | inconclusive: -13.2% [inhibitor] |
| CC(C)(C)c1nnc(NC(=O)Nc2ccc(Cl)cc2)s1 | – | inactive: 4.28% |
| Cc1ccc(S(=O)(=O)NC(=O)C2(C)CCN2C(=O)C2(c3ccc(Cl)cc3)CC2)cc1 (configuration not stated) | inconclusive [inhibitor, single point] | – |
| COc1ccc(OC)c(N2C(=O)CC(Cc3ccc(Cl)cc3)C2=O)c1 (configuration not stated) | inconclusive [inhibitor, single point] | – |
| CN(C)c1ccc(C=c2c3ccccc3n3c2c2ccccc2[n+]3C)cc1 | active: 50.1 µM | – |
| COc1cc(CNc2ccc(O)cc2)cc(Br)c1OCc1ccccc1F | active: 28.2 µM | – |
| CCOC(=O)Cc1csc(SCC(=O)N2CCN(c3ccc(OC)cc3)CC2)n1 | inconclusive [inhibitor, full curve] | – |
| CC(C)(C)c1ccc(C(=O)/C(C#N)=C/c2cccs2)cc1 | inconclusive [inhibitor, partial curve] | – |
| O=C(Nc1ccc(Cl)cc1)Nc1ccc(Oc2cccnc2)nc1 | inconclusive [inhibitor, single point] | – |
| O=C(CCCc1ccccc1)NCc1cn2ccsc2n1 | inconclusive [inhibitor, single point] | – |
| Cc1ccc(S(=O)(=O)N(C)C)cc1NC(=O)c1cc(C(C)(C)C)nn1Cc1ccccc1 | inconclusive [inhibitor, partial curve] | – |

| SMILES | Potency | activity change, negative = inhibition |
| --- | --- | --- |
| CSc1ncccc1C(=O)OCC(=O)Nc1nc(C)c(Cl)cc1Cl | inconclusive [inhibitor, single point] | – |
| NC(=O)c1ccc(NC(=O)COC(=O)c2ccc(Br)c(S(=O)(=O)N3CCOCC3)c2)cc1 | inconclusive [inhibitor, single point] | – |
| Cc1ccnc(SCC(=O)Nc2oc(-c3ccccc3)c(-c3ccccc3)c2C#N)n1 | inconclusive [inhibitor, partial curve] | – |
| O=C(Nn1cnnc1)c1ccc(OC(F)(F)C(F)C(F)(F)F)cc1 (configuration not stated) | inconclusive [inhibitor, full curve, poor fit] | – |
| Cc1csc(N=Nc2ccc(N(C)C)cc2)[n+]1[O-] | inconclusive [inhibitor, partial curve] | – |
| O=C(CNC(=O)c1ccccc1)Oc1ccc([N+](=O)[O-])cc1 | inconclusive [inhibitor, partial curve, poor fit] | – |
| Cc1nc2scc(-c3ccccc3)c2c(=O)n1N=C1C=CC(=O)C=C1 | inconclusive [inhibitor, partial curve] | – |
| O=C(CCNS(=O)(=O)c1ccc(Br)s1)NCc1ccccc1 | inconclusive [inhibitor, single point] | – |
| CCc1ccc(NC(=O)[C@H](NC(=O)[C@@H]2Cc3ccccc3CN2)c2ccccc2)cc1 | inconclusive [inhibitor, partial curve] | – |
| O=C(Nc1ccc(NC(=O)c2ccco2)cc1)c1ccco1 | – | inactive: -16.3% |
| CCOC(=O)C1(CC2CCCCO2)CCN(Cc2cn[nH]c2-c2cccc(F)c2)CC1 (configuration not stated) | inconclusive [inhibitor, full curve, poor fit] | – |
| O=C(Cc1ccc(S(=O)(=O)N2CCOCC2)s1)Nc1cc(C(F)(F)F)cc(C(F)(F)F)c1 | inconclusive [inhibitor, full curve] | – |
| O=C(NCc1ccc(Cl)c(Cl)c1)c1cc(C2CCCCN2C(=O)c2ccccn2)on1 (configuration not stated) | inconclusive [inhibitor, single point] | – |
| O=C(NC(NC(=S)Nc1ccc(Cl)cc1)C(Cl)(Cl)Cl)c1ccco1 (configuration not stated) | inconclusive [inhibitor, single point] | – |
| CN(C(=O)CSc1nc(-c2ccc(C(C)(C)C)cc2)c(C#N)c(=O)[nH]1)C1CCCCC1 | inconclusive [inhibitor, partial curve] | – |
| Nc1nnc(/C=C/c2cccc([N+](=O)[O-])c2)s1 | inconclusive [inhibitor, full curve, poor fit] | – |
| COC(=O)N/N=C/c1cn(CC(C)COc2ccccc2)c2ccccc12 (configuration not stated) | – | inactive: -21.3% |
| O=C(CN1CCOCC1)Nc1nc2ccc([N+](=O)[O-])cc2s1 | inconclusive [inhibitor, partial curve] | – |
| COC(=O)C(C(=O)OC)c1ccc(-n2cccc2)cc1 | – | inactive: -12.6% |
| O=C(/C=C/c1ccco1)N(c1ccccn1)c1ccccn1 | inconclusive [inhibitor, single point] | – |

— PubChem BioAssay AID720709 (National Center for Advancing Translational Sciences (NCATS), 2013)
